Test results taken from PubChem BioAssay AID686979 (National Center for Advancing Translational Sciences (NCATS), 2013).
Values joined by “and” are separate entries in the source; they are usually repeats but may differ in a detail not shown here. Equal values may be shown once. The whole screen tested about 420,000 compounds, of which about 50,000 (12%) were called active. The shares of active, inactive and inconclusive entries below differ from those in the screen. Calls follow the shape of the dose curve; as a rule, active = well fitted inhibition curve with a large enough effect; inconclusive = small, poorly fitted or top-dose-only effect; inactive = flat fitted curve, though single readings scatter. Where the call is inconclusive, the potency comes from a doubtful curve fit.

experiment: qHTS for Inhibitors of human tyrosyl-DNA phosphodiesterase 1 (TDP1): qHTS in cells in presence of CPT; conditions: chicken DT40 Tdp1-/-;hTDP1 cells + 20 nM CPT, ATP luminescence, 48 h; activity change, negative = growth inhibition: at 46.2 µM (top of the series) unless noted; also: nearly all actives have a fitted effect of over 55% in size
Outline: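 Cell growth measured by CellTiter-Glo luminescence after a minimum 48 h, 37 C compound exposure with 20 nM CPT in Tdp1-knockout DT40 cells stably expressing hTDP1, seeded 400/well; qHTS titration format.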
% is scaled to controls: 0 for no effect and ±100 for the full control effect; potency is read from the fitted curve at half-maximal effect; tags tell the direction and shape of the fitted curve.

SMILES	Potency	activity change, negative = growth inhibition
COc1ccc2c(C)c(C(=O)N3CCN(Cc4ccccc4)CC3)oc2c1	inconclusive: 16.4 µM [inhibitor, partial curve]	–
CCCC[C@@H]1CNCCN1CCc1cccc(F)c1	inconclusive: 20.6 µM [inhibitor, single point]	–
Cc1cccc(N(CC(=O)N2CCCC2)S(C)(=O)=O)c1	–	inactive: -2.22%
O=C(O)c1ccc(C(=O)O)c(C(=O)c2ccccc2)c1	–	inactive: 0.138%
CC(=O)c1cc(-c2ccc(F)cc2)n(CC(=O)NCc2ccc(C)cc2)c1C	active: 16.4 µM	–
CCOC(=O)N1CCN(C2=C(NS(=O)(=O)c3ccccc3)C(=O)c3ccccc3C2=O)CC1	active: 13 µM	–
C[C@H](NC[C@H](O)CP(=O)(O)Cc1ccccc1)c1ccc(Cl)c(Cl)c1	inactive	–
CCn1c(COc2ccccc2C)nnc1SCC(=O)N1CCN(c2ccccc2)CC1	inconclusive: 20.6 µM [inhibitor, single point]	–
COc1ncc(-c2c(-c3ccccc3OC)sc3ccccc23)cn1	inconclusive: 29.1 µM [inhibitor, single point]	–
COc1cc(NS(=O)(=O)c2cccs2)cc(OC)c1	–	inactive: -14.8%
Cn1c2c(c(=O)n(C)c1=O)C(NC(=O)c1ccco1)(C(F)(F)F)C(=O)N2 (stereo not given)	–	inactive: -8.94%
COc1ccc2cc(C(=O)NCc3ccccc3)c(=Nc3ccc(C(=O)O)cc3)oc2c1	inconclusive: 20.6 µM [inhibitor, single point]	–
O=C(NC(=S)NCc1cccnc1)c1cc(Br)ccc1Cl	–	inactive: -12.1%
Cc1cc(C)c(OCC(=O)Nc2cccc(-c3nc4ncccc4o3)c2)c(Br)c1	inconclusive: 18.4 µM [inhibitor, single point]	–
CCCOC(=O)C1=C(C)NC2=C(C(=O)CCC2)C1c1cccs1 (stereo not given)	–	inactive: -17.5%
COc1cccc(CN(C)C(=O)/C=C/c2ccc(S(=O)(=O)N3CCCCCC3)cc2)c1	inconclusive: 25.9 µM [inhibitor, single point]	–
Cc1ccc(NC(=O)CSc2n[nH]c(-c3ccco3)n2)c(C)c1	–	inactive: -4.66%
O=S(=O)(c1ccccc1)N1CCC2(CC1)OCCN2S(=O)(=O)c1cccs1	inconclusive: 16.4 µM [inhibitor, partial curve]	–
Cc1cc(C2=NNC(=NCCc3ccccc3)SC2)c(C)n1CC1CCCO1 (stereo not given)	active: 16.4 µM	–
CC1(C(=O)Nc2ccc3c(c2)OCCO3)CCN1Cc1ccc(-c2ccccn2)cc1 (stereo not given)	inconclusive: 16.4 µM [inhibitor, single point]	–
Cc1ccc(NC(=O)c2ccccc2SCC(=O)N2CCCC2)cc1S(=O)(=O)N(C)C	–	inactive: -6.08%
COc1ccccc1C(=O)NC(=S)Nc1ccc(Cc2ccncc2)cc1	inconclusive: 29.1 µM [inhibitor, single point]	–
CC(C)(CNC(=O)c1cccc(F)c1)CNC(=O)c1cccc(F)c1	inconclusive: 18.4 µM [inhibitor, single point]	–
O=C(N/N=C/c1cccc([N+](=O)[O-])c1)c1ccc2nc[nH]c2c1	–	inactive: -6.04%

SMILES	Potency	activity change, negative = growth inhibition
COc1ccc(C(C)=O)cc1CN1C(=O)C(C)ON=C1c1cccc(C(F)(F)F)c1 (stereo not given)	inconclusive: 29.1 µM [inhibitor, single point]	–
CCOC(=O)N1CCC(Nc2nc3ccccc3n3nnnc23)CC1	inconclusive: 20.6 µM [inhibitor, single point]	–
CCCn1c2ccccc2c2cnn(CC(=O)NCCc3cc(OC)ccc3OC)c(=O)c21	inconclusive: 18.4 µM [inhibitor, single point]	–
C=CC[N+]1(CC#Cc2ccccc2)CCCC1	inconclusive: 23.1 µM [inhibitor, single point]	–
CCOc1ccccc1NC(=O)CCNC(=O)C1CCN(S(=O)(=O)c2ccccc2)CC1	–	inactive: -21.2%
Cc1nc(-c2ccc(F)cc2)sc1CCNC(=O)C(=O)Nc1ccc2c(c1)OCO2	–	inconclusive: -30% [inhibitor]
COc1ccc2oc(=O)c(-c3nc4ccccc4o3)cc2c1	inconclusive: 20.6 µM [inhibitor, partial curve]	–
COc1cc2nc(N3CCCN(C)CC3)nc(NC3CCNCC3)c2cc1OC	active: 11.2 µM	–
Cc1ccc(NC(=O)c2cc3cccc([N+](=O)[O-])c3[nH]2)cc1	inconclusive: 29.1 µM [inhibitor, single point]	–
CCCCCCCCCc1conc1C(=O)/C=C/c1oc2c(c1C)CCC(C)C2 (stereo not given)	active: 20.6 µM	–
COc1cc2nc(N(CCCN(C)C)C(=O)c3ccc(S(=O)(=O)N4CCc5ccccc5C4)cc3)sc2cc1OC	inconclusive: 29.1 µM [inhibitor, single point]	–
CCN(CC)c1ccc(NC(=O)c2sc3nc(-c4ccccc4)cn3c2C)cc1	active: 3.66 µM	–
CCOc1ccc(NC(=S)Nc2cccc3ccccc23)cc1	inconclusive: 8.2 µM [inhibitor, partial curve]	–
COc1ccccc1N1CCN(C(=O)C(C)NC(=O)c2cccc([N+](=O)[O-])c2)CC1 (stereo not given)	–	inconclusive: -32.2% [inhibitor]
O=C(NNC(=O)c1cc(-c2ccc(Cl)cc2)nc2ccccc12)c1csc(N2CCOCC2)n1	–	inactive: 5.55%
COc1ccc(N2CCN(C(=O)c3nn(C)c4c3CSc3ccccc3-4)CC2)cc1	–	inactive: -109%
Cc1ccc(Cn2c(N/N=C/c3ccncc3)nc3c2c(=O)n(C)c(=O)n3C)cc1	inconclusive: 18.4 µM [inhibitor, single point]	–
CCOC(=O)C1CCN(Cc2ccc(OC)c(OCc3ccccc3)c2)CC1	active: 13 µM	–
CC(=O)c1cccc(NC(=O)c2ccc(-c3ccccc3[N+](=O)[O-])o2)c1	inconclusive: 29.1 µM [inhibitor, single point]	–
CCCc1cnc(Nc2nc(C(N)Cc3ccc(OC)cc3)cs2)nc1 (stereo not given)	inconclusive: 18.4 µM [inhibitor, single point]	–
O=C(Nc1ccc(-c2ccco2)cc1)C1CCCN(Cc2ccco2)C1 (stereo not given)	inconclusive: 20.6 µM [inhibitor, single point]	–
C/C(=N\Nc1cccc(Cl)c1)c1ccc(-n2ccnc2)cc1	inconclusive: 29.1 µM [inhibitor, single point]	–
COc1cccc(/C=C/c2nccc3ccccc23)c1OC	inconclusive: 35.5 µM [inhibitor, single point]	–
Cc1ccc(Cl)cc1NC(=O)Cn1cc(S(=O)(=O)Cc2ccccc2Cl)c2ccccc21	inconclusive: 20.6 µM [inhibitor, single point]	–

SMILES	Potency	activity change, negative = growth inhibition
CC1=CCC2C(=O)N(c3ccc(C(=O)Nc4ccccc4Cl)cc3)C(=O)C2C1 (stereo not given)	–	inactive: -12.1%
COc1ccccc1CNC(=O)c1ccc(CNc2c(N3CCCC3)c(=O)c2=O)cc1	–	inconclusive: 1.09% [inhibitor]
O=C(CSC1=NS(=O)(=O)c2cc(F)ccc2N1)NCc1ccc(F)cc1	–	inactive: 13.2%
CCN(CC)N=Nc1cccc(NC(C)=O)c1	active: 11.6 µM	–
CCCN(C(=O)NCc1noc2ccc(C)cc12)c1ccc(Cl)c(Cl)c1	inconclusive: 29.1 µM [inhibitor, single point]	–
NC(=O)C1CCN(C(=O)/C=C/c2cc(Br)ccc2F)CC1	inconclusive: 2.91 µM [inhibitor, full curve, poor fit]	–
O=C(NC1CCCN(Cc2ccc(Cl)cc2)C1)c1ccccc1-c1ncc[nH]1 (stereo not given)	–	inactive: -9.29%
CC(c1ccccc1)N(C)CC(=O)NC(=O)NCCC1=CCCCC1 (stereo not given)	inconclusive: 29.1 µM [inhibitor, single point]	–
O=C1CCCCCCC1Sc1ccccc1[N+](=O)[O-] (stereo not given)	–	inactive: 5%
COc1cccc(C(C)(O)c2nc(-c3ccc(S(C)(=O)=O)cc3)cs2)c1 (stereo not given)	inconclusive: 23.1 µM [inhibitor, single point]	–
O=C(Cn1c(SCCOc2ccccc2Cl)nc2ccccc21)N1CCCCC1	inconclusive: 23.1 µM [inhibitor, single point]	–
COc1ccc(OC)c(CC(NC(C)=O)C(=O)NC2CCN(S(=O)(=O)c3ccc(NC(C)=O)cc3)CC2)c1 (stereo not given)	–	inactive: -5.77%
CC1=NCCN1S(=O)(=O)c1ccc(Br)c(C)c1	inconclusive: 29.1 µM [inhibitor, single point]	–
COc1ccc(C2C(C(=O)N3CCCCC3)c3ccccc3C(=O)N2C)cc1 (stereo not given)	inconclusive: 29.1 µM [inhibitor, single point]	–
COc1cccc(-c2nnc3n2N=C(c2cc(OC)ccc2OC)CS3)c1	inconclusive: 23.1 µM [inhibitor, single point]	–
N#Cc1c(-c2ccc(Cl)cc2)ccn2nc(C3CCCCC3)nc12	inconclusive: 25.9 µM [inhibitor, single point]	–
CSc1ccccc1NC(=O)C1CC(c2ccccc2Cl)=NO1 (stereo not given)	inconclusive: 29.1 µM [inhibitor, single point]	–
COc1cc(/C=C(\C#N)c2nc3ccccc3[nH]2)c([N+](=O)[O-])cc1OCc1ccccc1	active: 23.1 µM	–
CCOC(=O)c1ccc2nc3c(cc2c1)CCS3	inconclusive: 11.2 µM [inhibitor, partial curve]	–
Cc1cc(C)cc(OCC(=O)NCC2(N3CCOCC3)CCCCC2)c1	inconclusive: 23.1 µM [inhibitor, single point]	–
COc1ccc([C@@H]2Sc3ccccc3N(CCN(C)C)C(=O)[C@@H]2OC(C)=O)cc1	inactive and inconclusive: 13.3 µM [inhibitor, full curve, poor fit] and inconclusive: 23 µM [inhibitor, single point]	–
O=C(Nc1cccc(F)c1)N1CCC2(CC1)CCN(C(=O)c1ccco1)CC2	–	inactive: 2.79%
